Out of some 390,000 compounds screened, about 17,000 (4.4%) were called active. The inconclusive results got no clear call from the source; some entries with a clear call stand among them for comparison. Calls come from the whole dose curve; as a rule, active = well fitted inhibition curve with a large enough effect; inconclusive = small, poorly fitted or top-dose-only effect; inactive = no such curve, though single readings can be large or run the other way. Where the call is inconclusive, the potency comes from a doubtful curve fit.
What follows are molecules tested against Lysine-specific demethylase 4A (Homo sapiens) (UniProt O75164) (assay: qHTS Assay for Inhibitors of JMJD2A-Tudor Domain). Conditions: AlphaScreen JMJD2A-Tudor / H3K4me3 peptide binding; activity change, negative = inhibition: at 114 µM (top of the series).
UniProt O75164, sequence (O75164 whole entry, looked up, the tested form may be a part): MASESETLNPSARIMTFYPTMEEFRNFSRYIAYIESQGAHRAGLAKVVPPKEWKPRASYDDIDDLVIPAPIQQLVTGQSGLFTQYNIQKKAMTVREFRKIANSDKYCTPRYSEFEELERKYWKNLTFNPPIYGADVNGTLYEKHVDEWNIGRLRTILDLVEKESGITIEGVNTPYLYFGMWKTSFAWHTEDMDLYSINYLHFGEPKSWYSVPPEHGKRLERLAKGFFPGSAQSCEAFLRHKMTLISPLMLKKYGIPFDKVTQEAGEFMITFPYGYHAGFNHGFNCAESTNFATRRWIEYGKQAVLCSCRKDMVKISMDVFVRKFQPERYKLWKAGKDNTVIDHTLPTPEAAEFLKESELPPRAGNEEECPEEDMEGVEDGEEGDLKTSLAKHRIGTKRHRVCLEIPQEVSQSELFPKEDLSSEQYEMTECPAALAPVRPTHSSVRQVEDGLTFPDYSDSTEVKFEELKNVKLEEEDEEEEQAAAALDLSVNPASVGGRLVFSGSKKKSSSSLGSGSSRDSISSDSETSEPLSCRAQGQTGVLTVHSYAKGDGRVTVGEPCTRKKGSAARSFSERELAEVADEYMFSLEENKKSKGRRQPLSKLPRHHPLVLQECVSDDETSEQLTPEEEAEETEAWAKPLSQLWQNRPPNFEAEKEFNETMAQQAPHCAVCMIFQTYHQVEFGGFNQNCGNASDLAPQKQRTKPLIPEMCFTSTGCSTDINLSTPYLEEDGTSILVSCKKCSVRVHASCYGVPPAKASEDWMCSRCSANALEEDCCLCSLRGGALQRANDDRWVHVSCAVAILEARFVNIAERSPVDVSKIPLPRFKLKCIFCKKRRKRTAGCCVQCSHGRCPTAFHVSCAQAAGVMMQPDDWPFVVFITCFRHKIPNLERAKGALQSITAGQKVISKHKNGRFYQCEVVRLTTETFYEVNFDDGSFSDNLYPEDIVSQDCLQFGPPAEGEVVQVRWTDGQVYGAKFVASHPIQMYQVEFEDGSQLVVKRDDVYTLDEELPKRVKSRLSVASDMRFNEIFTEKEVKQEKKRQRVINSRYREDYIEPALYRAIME
For `COc1ccc(C(=O)n2nc(-c3ccco3)nc2SC)cc1OC`, the Potency was inconclusive: 44.7 µM [inhibitor, partial curve]. With `CC1(C)C2CC=C(/C=N/NC(=S)NCCc3ccccc3)C1C2` (stereo not given) the Potency was “inactive”. In the case of `Cc1ccccc1SC1CCN(Cc2nc(C3CC3)no2)CC1`, the Potency is reported as “inactive”. In the case of `CCc1n[nH]c(=S)n1/N=C/c1cc(Br)c(O)c(OC)c1`, the Potency is reported as active: 5.62 µM. For `Cc1nc2ccc(S(=O)(=O)N(C)CC(=O)NCc3ccc(N(C)C)cc3)cc2s1`, the Potency was inconclusive: 56.2 µM [inhibitor, partial curve]. For `COc1ccccc1Oc1ccc(NC(=O)c2ccc(Cl)cc2)cc1`, the Potency was “inactive”. `CC(=O)Nc1nc(-c2ccccc2)nc(C)c1C(C)=O` was tested, and the Potency was inconclusive: 89.1 µM [inhibitor, single point]. `CCn1cc(C(=S)N2CCC(C(N)=O)CC2)c2ccccc21` was tested, and the Potency was “inactive”. For `Cc1ccc2cc3c(NS(=O)(=O)c4cccc5nonc45)nn(CC(C)C)c3nc2c1`, the Potency was inconclusive: 50.1 µM [inhibitor, partial curve]. `C=CCC1Cc2c(cccc2[N+](=O)[O-])C(CC=C)N1` (stereo not given) was tested, and the Potency was inconclusive: 56.2 µM [inhibitor, partial curve]. With `COc1ccc(-c2[nH]c(-c3ccc(F)cc3)nc2SCC(=O)NC2CCCC2)cc1` the Potency was inconclusive: 50.1 µM [inhibitor, partial curve]. `CC(C)N(C)CCOC(=O)c1ccccc1Br` was tested, and the Potency was active: 50.1 µM. In the case of `Cc1ccc(S(=O)(=O)Nc2c(O)ccc3ccccc23)cc1`, the Potency is reported as inconclusive: 63.1 µM [inhibitor, partial curve, poor fit]. With `COC(=O)CSC1=C(C#N)C(c2ccccc2)CC(=O)N1` (stereo not given) the Potency was “inactive”. In the case of `Cc1ccc(Cn2ccnc2SCC(=O)Nc2nc3ccccc3s2)cc1`, the Potency is reported as inconclusive: 20 µM [inhibitor, partial curve]. With `COCC(=O)N(Cc1cc2cc(OC)ccc2[nH]c1=O)c1ccccc1OC` the Potency was “inactive”. For `CN1CCN(c2ccc(CNS(=O)(=O)c3ccc(Cl)cc3)cc2)CC1`, the Potency was “inactive”. With `CCOC(=O)CNS(=O)(=O)c1cc(-c2nn(C)c(=O)c3ccccc23)ccc1C` the Potency was inconclusive: 79.4 µM [inhibitor, partial curve]. `COc1cc2c(cc1OC)CN(Cc1ccc(C)cc1)CC2` was tested, and the Potency was “inactive”. For `CCn1ccnc1CN(C)Cc1cn(-c2ccc(C)cc2)nc1-c1cccc(C)c1`, the activity change, negative = inhibition was inconclusive: -62.3% [inhibitor]. `CCOc1ccc(N=C2C(=O)Nc3ccc(C)c(Br)c32)cc1` was tested, and the Potency was inconclusive: 2 µM [inhibitor, full curve]. With `COc1cc(CNCc2ccccn2)ccc1OCC(=O)NC1CCCCC1` the Potency was inconclusive: 50.1 µM [inhibitor, partial curve, poor fit]. For `COC(=O)c1ccccc1NC(=O)COC(=O)CSc1nnc(N)s1`, the Potency was “inactive”. For `N#Cc1nc(-c2ccc(F)cc2)oc1N1CCN(C(=O)c2ccco2)CC1`, the Potency was inconclusive: 39.8 µM [inhibitor, partial curve]. `CC(=O)c1cc(C)c(OCc2cn(CC(=O)c3ccc(O)cc3)nn2)c(C)c1` was tested, and the Potency was inconclusive: 100 µM [inhibitor, partial curve]. `Cc1ccc(C2C=C(c3ccccc3OC(F)F)Nc3ncnn32)cc1` (stereo not given) was tested, and the Potency was “inactive”. With `COc1ccc2nc(/N=C/c3c(C)[nH]n(-c4ccc(C)cc4)c3=O)sc2c1` the Potency was inconclusive: 63.1 µM [inhibitor, partial curve, poor fit]. In the case of `Nc1cc(C(=O)N/N=C/c2cccc([N+](=O)[O-])c2)n[nH]c1=O`, the Potency is reported as inconclusive: 10 µM [inhibitor, partial curve]. `c1ccc(-n2ncc3c2ncn2nc(CSc4nc5ccccc5s4)nc32)cc1` was tested, and the Potency was inconclusive: 79.4 µM [inhibitor, single point]. With `Cc1ccc(NC(=O)CN2CCc3ccccc3C2)cc1S(=O)(=O)N(C)C` the Potency was active: 3.16 µM. `O=C(CCCN1C(=O)/C(=C/c2ccccc2)SC1=S)Nc1cccc(O)c1` was tested, and the Potency was inconclusive: 35.5 µM [inhibitor, partial curve]. With `COCCNC(=O)c1ccc(Cn2c(=S)[nH]c3cc4c(cc3c2=O)OCO4)cc1` the Potency was active: 28.2 µM. In the case of `C/C(=C\C(=O)c1cccnc1)Nc1ccc(C(=O)O)cc1`, the Potency is reported as inconclusive: 31.6 µM [inhibitor, single point]. For `O=C(Nc1ccccc1)c1ccc(-c2ccc([N+](=O)[O-])cc2)o1`, the Potency was inconclusive: 1.26 µM [inhibitor, full curve, poor fit]. `CSc1ncc(CN2CCCC(C(=O)Nc3ccc(-c4ccco4)cc3)C2)cn1` (stereo not given) was tested, and the Potency was inconclusive: 28.2 µM [inhibitor, partial curve]. For `O=C1Nc2ccccc2C1=Nc1ccccc1-c1ccccc1`, the Potency was inconclusive: 14.1 µM [inhibitor, full curve, poor fit]. For `Cc1cccc(C(=O)Oc2ccc(/C=N/O)cc2)c1`, the Potency was “inactive”. `NC(=S)N/N=C\c1c2ccccc2cc2ccccc12` was tested, and the Potency was “inactive”. For `CCCCCCCn1c2c(c(=N)c3ccccc31)CCC2`, the Potency was inconclusive: 35.5 µM [inhibitor, single point]. In the case of `CCOC(=O)c1[nH]c2ccc(OC)cc2c1NC(=S)N1CCN(c2ccccc2OC)CC1`, the Potency is reported as inconclusive: 39.8 µM [inhibitor, single point]. With `CCCCCC(=O)Nc1cccc(C2=NOC3(C2)C[C@@H](C(N)=O)N(C(=O)c2cc([N+](=O)[O-])cc([N+](=O)[O-])c2)C3)c1` (stereo not given in full) the Potency was inconclusive: 63.1 µM [inhibitor, partial curve, poor fit]. For `NC(=O)C1CCN(C2CC(=O)N(Cc3ccc(N4CCCC4=O)cc3)C2=O)CC1` (stereo not given), the Potency was inconclusive: 2.82 µM [inhibitor, full curve, poor fit]. `Cc1ccc2[nH]c(C(=O)N3CCCC(Nc4ccc(F)cc4)C3)cc2c1` (stereo not given) was tested, and the Potency was inconclusive: 63.1 µM [inhibitor, partial curve, poor fit]. For `COC1=C(c2ccccc2)C(=O)c2ccccc2C1=O`, the Potency was inconclusive: 31.6 µM [inhibitor, partial curve]. For `COc1cccc(-c2nc(-c3ccccc3)nc(N3CCN(C)CC3)c2C#N)c1`, the Potency was active: 56.2 µM.

— PubChem BioAssay AID504339 (National Center for Advancing Translational Sciences (NCATS), 2011)
% is set by controls: 0 for no effect and ±100 for the full control effect; potency is the fitted concentration of half-maximal effect; tags give direction and shape of the fitted curve.
Note: nearly all actives have a fitted effect of over 50% in size.
